# Measured values from PubChem BioAssay AID1345083 (National Center for Advancing Translational Sciences (NCATS), 2018).
# Screen size: about 94,000 compounds; about 6,200 (6.6%) were called active. The inconclusive results got no clear call from the source; some entries with a clear call stand among them for comparison. Calls come from the whole dose curve; as a rule, active = well fitted inhibition curve with a large enough effect; inconclusive = small, poorly fitted or top-dose-only effect; inactive = flat fitted curve, though single readings scatter. A potency beside an inconclusive call is a rough fit, not a confirmed value.
# Assay: Cytotoxic Profiling in HEK 293 Cell Line of Diverse Libraries Using Quantitative High-Throughput Screening; note: nearly all actives have a fitted effect of over 60% in size
# Details: HEK 293 viability, ATP luminescence (CellTiter-Glo), 48-72 h; series mostly up to 115 µM
# How it was run: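 250 HEK 293 cells/well; compound by pintool; incubated 48 or 72 hr at 37 degree Celsius; CellTiter-Glo added, 10 min RT, luminescence imaged.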
# Potency is the fitted concentration of half-maximal effect; tags give direction and shape of the fitted curve.
row,SMILES,Potency
1,COc1ccccc1-c1cc(C(=O)N2CCN(c3ncccn3)CC2)c2cnn(C)c2n1,"inconclusive: 89.1 µM [inhibitor, single point]"
2,COCC(=O)N[C@H]1CC(C)(C)[C@@H]2C[C@@](C)(O)CC[C@]12CCC(=O)N1CCN(c2ccccc2OC)CC1,inactive
3,Cc1ccccc1C(=O)Nc1ccc([C@H]2OCC(=O)N(Cc3ccncc3)[C@@H]2CO)cc1,inactive
4,CCOc1ccccc1C1NC(=O)N(CC(=O)N2CCN(c3ccc(F)cc3)CC2)C2=C1C(=O)OC2 (centres undefined),"inconclusive: 100 µM [inhibitor, single point]"
5,CCC(=O)N1CCC(Cc2ncc(C)n2CC2CC2)CC1,inactive
6,O=C(c1cc(Cl)ccc1F)N1CCN(c2cc(-c3ccccc3)[nH]n2)CC1,"inconclusive: 44.7 µM [inhibitor, partial curve, poor fit]"
7,FC(F)(F)c1cccc(CN2CCOC[C@H](Oc3cnccn3)C2)c1,"inconclusive: 126 µM [inhibitor, single point]"
8,O=C(NCCOc1ccccc1)c1nc2c(o1)CCN(Cc1ccsc1)CC2,"inconclusive: 89.1 µM [inhibitor, partial curve, poor fit]"
9,CCN1c2cc(C(=O)Nc3cccc(OC)c3)ccc2C(=O)N2CCCC21 (centres undefined),"inconclusive: 79.4 µM [inhibitor, single point]"
10,COc1ccccc1-n1cc(-c2ccnc(N3CCCN(C(C)=O)CC3)n2)cn1,"inconclusive: 50.1 µM [inhibitor, partial curve, poor fit]"
11,COc1cccc(CN2CCCC(NC(=O)NCc3cccs3)C2)c1 (centres undefined),inactive
12,COc1ccccc1-c1ccc(C(=O)N2CCC(NC(=O)NC3CCCC3)CC2)cc1,"inconclusive: 79.4 µM [inhibitor, partial curve]"
13,CCCS(=O)(=O)N1CCC([C@H]2[C@@H](OC)C(=O)N2C(C)C)CC1,inactive
14,COc1ccc(CN2C[C@@H]3C(=O)N(Cc4ccc5c(c4)OCO5)C(=O)[C@@H]3C2)cc1OC,"inconclusive: 39.8 µM [inhibitor, full curve, poor fit]"
15,COc1ccc(-c2ccnc(N[C@H]3CO[C@H]4[C@@H]3OC[C@H]4OC(=O)Nc3ccc(C(C)(C)C)cc3)n2)cc1,"inconclusive: 12.6 µM [inhibitor, full curve, poor fit]"
16,CC(C)N1CCC2(CC1)CN(C(=O)c1cccnc1)Cc1ccccc1O2,inactive
17,COc1ccc(CNC(=O)Cn2c(-c3ccc(Cl)cc3)nc(C)c(CCO)c2=O)cc1,"inconclusive: 89.1 µM [inhibitor, single point]"
18,O=C(Nc1ccccn1)[C@@H]1C[C@@H](c2ccc(F)cc2)N(Cc2ccccc2)C1,"inconclusive: 56.2 µM [inhibitor, partial curve, poor fit]"
19,COc1ccc(C2(C(=O)NCc3ccc(C(F)(F)F)cc3)CCOCC2)cc1,"inconclusive: 50.1 µM [inhibitor, partial curve, poor fit]"
20,CN(C(=O)Cn1nc2n(c1=O)CCCCC2)C1CCCCC1,inactive
21,C=CCCC(CN1CCSCC1)Oc1ncc(CC)cn1 (centres undefined),"inconclusive: 22.4 µM [inhibitor, full curve, poor fit]"
22,O=C(NCCCN1CCOCC1)c1c(OCC2CC2)cc(=O)n2c1CCCCC2,inactive

row,SMILES,Potency
1,CC(=O)N1C[C@@H]2CCCN3CCC[C@@H]([C@H]23)[C@H]1CCCC(=O)NCc1ccc(N2CCN(C)CC2)cc1,inactive
2,COc1ccc(Cn2c(=O)[nH]c3cccnc32)cc1,inactive
3,Cn1ncc2c(C(=O)NCc3cccs3)cc(-c3ccc(C(F)(F)F)cc3)nc21,active: 35.5 µM
4,Cc1cc(C)cc(N2CCC(NC(=O)c3ccc4[nH]ccc4c3)C2=O)c1 (centres undefined),"inconclusive: 50.1 µM [inhibitor, partial curve, poor fit]"
5,O=C(c1ccc(-c2cccc(O)c2)nc1)N1CCC(CCc2ccccc2)CC1,"inconclusive: 79.4 µM [inhibitor, partial curve, poor fit]"
6,COc1cccc(-n2cc(CN(C)Cc3cn(-c4ccccc4)nn3)cn2)c1,active: 31.6 µM
7,CCn1ccnc1CN(C)C(=O)c1cn(Cc2ccccc2F)nn1,inactive
8,COCc1ccc2c(c1)c(OC(C)(C)C(=O)NCc1ccncc1)nn2Cc1cccnc1,inactive
9,CN(C)C(=O)N1CCc2nc(C3CC3)nc(-c3ccc(Cl)cc3)c2C1,"inconclusive: 100 µM [inhibitor, partial curve, poor fit]"
10,COc1ccc(CCC(=O)N2CCC3(CC2)CC(Cc2nc(-c4cnccn4)no2)CCO3)cc1 (centres undefined),"inconclusive: 50.1 µM [inhibitor, partial curve, poor fit]"
11,O=C(N[C@@H]1CCC[C@@H]1C(=O)N1CCN(c2cccc(Cl)c2)CC1)c1ccncc1,"inconclusive: 56.2 µM [inhibitor, partial curve, poor fit]"
12,CC(C)CCN1C(=O)CC[C@]2(C(=O)N3CCN(CC(C)C)CC3)CCCC[C@@H]12,"inconclusive: 89.1 µM [inhibitor, single point]"
13,O=C(c1ccccc1)N1CCCCC12Cc1ccccc1NC2=O (centres undefined),"inconclusive: 126 µM [inhibitor, single point]"
14,Cc1c(Cl)cccc1NC(=O)c1cc2n(n1)CC(c1ccc(Cl)cc1)OC2 (centres undefined),"inconclusive: 56.2 µM [inhibitor, partial curve, poor fit]"
15,COCC1CN(C2CCC2)CC12CCN(Cc1cnn(C(C)C)c1)CC2 (centres undefined),"inconclusive: 56.2 µM [inhibitor, partial curve, poor fit]"
16,CCc1cc(=O)n(CC(=O)Nc2ccccc2OC)c(-c2ccccc2)n1,"inconclusive: 44.7 µM [inhibitor, partial curve, poor fit]"
17,CN(C(=O)CCc1ccc2c(c1)OCO2)C1CCCN(C2Cc3ccccc3C2)C1 (centres undefined),"inconclusive: 39.8 µM [inhibitor, single point]"
18,N#Cc1cccc(C(=O)NC2CCN(c3cc(-c4ccc(Cl)cc4)[nH]n3)CC2)c1,"inconclusive: 44.7 µM [inhibitor, partial curve, poor fit]"
19,O=C(C1CCN(Cc2ccccc2-c2ccccc2F)CC1)N1CCC(c2ccccc2)CC1,active: 25.1 µM
20,Cc1ccc(-c2cccc(CN3CCCC(NC(=O)Nc4ccccc4F)C3)c2)cc1Cl (centres undefined),active: 17.8 µM
21,COc1cccc([S+](=O)([O-])N2CCC(c3nn(-c4ccccn4)c(=O)[nH]3)CC2)c1,"inconclusive: 28.2 µM [inhibitor, full curve]"
22,COc1ccc(-c2cc(C(=O)NCc3cccs3)c3cnn(C)c3n2)cc1,"inconclusive: 20 µM [inhibitor, full curve, poor fit]"

row,SMILES,Potency
1,CC(C)NC(=O)C1CCCN1c1nccc(Nc2ccccc2F)n1 (centres undefined),"inconclusive: 126 µM [inhibitor, single point]"
2,O=C(NCc1ccc(C(F)(F)F)cc1)[C@@H]1CCCN1c1nccc(Nc2ccccc2Cl)n1,"inconclusive: 56.2 µM [inhibitor, partial curve, poor fit]"
3,COc1ccc(NC(=O)Cn2c(=O)c(-c3noc(C)n3)c3n(c2=O)CCCC3)c(OC)c1,inactive
4,OC[C@H]1C[C@@H](NCc2cccc3c2OCO3)[C@H](O)[C@@H]1O,inactive
5,O=C1COCCN1c1cc(-c2ccccc2Oc2ccccc2)cn2cncc12,"inconclusive: 100 µM [inhibitor, partial curve]"
6,CCC1=C(C(=O)OC)C(c2cccc(OC)c2)N2C(CC(=O)N3CCC(C)CC3)=CSC2=N1 (centres undefined),"inconclusive: 56.2 µM [inhibitor, partial curve, poor fit]"
7,Cc1cc(Cl)ccc1S(=O)(=O)NCCn1c(C)cnc1C1CCC1,"inconclusive: 56.2 µM [inhibitor, partial curve, poor fit]"
8,O=C(Cn1cccc1-c1nc(-c2ccc(F)cc2)no1)Nc1ccc(F)c(F)c1,"inconclusive: 35.5 µM [inhibitor, partial curve, poor fit]"
9,O=C(Nc1ccccc1)N1CCCN(c2ccc3nnc(C4CC4)n3n2)CC1,inactive
10,c1ccc(CNC[C@H]2Cn3c(-c4ccccc4)cnc3CO2)cc1,"inconclusive: 112 µM [inhibitor, partial curve, poor fit]"
11,CC(=O)NC1(C)CN(c2cccc(C(F)(F)F)c2)C1,"inconclusive: 141 µM [inhibitor, partial curve, poor fit]"
12,CC(C)CNC(=O)NC1CCN(C(=O)N2CC3CC(C2)[C@H]2CCCC(=O)N2C3)CC1 (some centres undefined),inactive
13,COC1C(=O)N(C2CCN(Cc3scnc3C)CC2)C12CCOCC2 (centres undefined),inactive
14,COc1ccc(CC(=O)NC2CCCc3c2[nH]c2c(Cl)cccc32)cc1 (centres undefined),"inconclusive: 17.8 µM [inhibitor, partial curve, poor fit]"
15,COc1ccc(OC)c(C(O)Cn2ccn3nc(-c4ccc(C(C)C)cc4)cc3c2=O)c1 (centres undefined),active: 31.6 µM
16,CC(C)(C)c1cc(C(=O)NCCc2ccc(Cl)cc2)nn2cccc12,"inconclusive: 79.4 µM [inhibitor, partial curve]"
17,O=c1c2nc(-c3ccc(O)c(F)c3)ccc2ncn1-c1ccc(F)cc1F,"inconclusive: 112 µM [inhibitor, partial curve]"
18,Cn1nc(C2CCCN2C(=O)NC2CCCCC2)n(Cc2ccccc2)c1=O (centres undefined),inactive
19,COC(=O)c1ccccc1NC(=O)c1c(OC)cc(=O)n2c1CCCC2,"inconclusive: 89.1 µM [inhibitor, single point]"
20,O=C(NCCO)c1ccc(-c2ncc3cnc(C4=CCOCC4)cn23)cc1,inactive
